# From PubChem BioAssay AID1345082 (National Center for Advancing Translational Sciences (NCATS), 2018)
# Out of some 94,000 compounds screened, about 4,000 (4.3%) were called active. This list was built around the results that the source calls inconclusive (neither active nor inactive); the mix of calls is not that of the screen. Calls follow the shape of the dose curve; as a rule, active = well fitted inhibition curve with a large enough effect; inconclusive = small, poorly fitted or top-dose-only effect; inactive = no such curve, though single readings can be large or run the other way. A potency beside an inconclusive call is a rough fit, not a confirmed value.
# Assay: Cytotoxic Profiling in NIH 3T3 Cell Line of Diverse Libraries Using Quantitative High-Throughput Screening; also: nearly all actives have a fitted effect of over 55% in size
# Conditions: NIH 3T3 viability, CellTiter-Glo ATP luminescence, 48-72 h; series mostly up to 96.7 µM
# Procedure, shortened: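 Cells were seeded at 400 per well, treated with pin-transferred compound, and kept 48 or 72 hr at 37 °C before CellTiter-Glo addition and luminescence imaging of cellular ATP.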
# Potency is read from the fitted curve at half-maximal effect; tags tell the direction and shape of the fitted curve.
row,SMILES,Potency
1,Cc1ccc(C(=O)N2CCN(C(=O)c3nnn4c3COC(c3ccccc3)C4)CC2)c(C)c1 (stereo not drawn),"inconclusive: 56.2 µM [inhibitor, single point]"
2,COCC(=O)N1CCN(C(=O)c2nc3cccnc3n(C3CCCC3)c2=O)CC1,inactive
3,COc1ccccc1C(=O)N1CCCC(C(=O)N2CCC(N3CCOCC3=O)CC2)C1 (stereo not drawn),inactive
4,O=C(NCc1ccccc1)O[C@@H]1CO[C@H]2[C@@H]1OC[C@@H]2Nc1nccc(-c2ccc3c(c2)OCO3)n1,"inconclusive: 14.1 µM [inhibitor, partial curve, poor fit]"
5,CN(C)c1ccc(CN[C@H]2CC(C)(C)[C@@H]3C[C@@](C)(O)CC[C@]23CCC(=O)NCCc2c[nH]c3ccccc23)cc1,active: 17.8 µM
6,O=C(c1ccccc1F)N1CCC(n2cc(-c3nc(C4CC4)no3)nn2)C1 (stereo not drawn),"inconclusive: 28.2 µM [inhibitor, partial curve]"
7,COc1ccc(F)cc1-c1ncc2c(n1)OCCN(CC1CC1)C2=O,"inconclusive: 44.7 µM [inhibitor, partial curve, poor fit]"
8,O=c1cc(-c2cccnc2)oc2c(-c3ccccc3O)nccc12,"inconclusive: 14.1 µM [inhibitor, full curve, poor fit]"
9,Cc1ccc(CNC(=O)c2ccc3c(c2)CN(C2CCN(CC(C)C)CC2)CCO3)cc1,inactive
10,O=C(c1ccc(F)cc1)N1CCCN(Cc2ccc3c(c2)OCO3)c2ccccc21,"inconclusive: 50.1 µM [inhibitor, partial curve, poor fit]"
11,COCC(=O)N1CCN(c2nccc(Nc3ccccc3F)n2)CC1,inactive
12,O=S(=O)(c1ccccc1)N1CCN(c2ccnc3ccnn23)CC1,"inconclusive: 50.1 µM [inhibitor, partial curve, poor fit]"
13,CCOc1ccccc1C1NC(=O)N(CC(=O)Nc2cccc(C)c2C)C2=C1C(=O)OC2 (stereo not drawn),inactive
14,COCc1cccc(-c2n[nH]c3c2CC(=O)N(CC2CC2)C3)c1,"inconclusive: 112 µM [inhibitor, single point]"
15,COc1ccccc1-c1cccc(C(=O)N2CCC[C@H]2C(=O)NCc2ccc(F)cc2)c1,"inconclusive: 50.1 µM [inhibitor, partial curve, poor fit]"
16,O=C1Nc2ccc(-c3cccs3)cc2C(=O)N2CC[C@H](NS(=O)(=O)c3ccc(Cl)cc3)C[C@@H]12,"inconclusive: 44.7 µM [inhibitor, partial curve, poor fit]"
17,Cc1ncc(-c2ccc(F)c3cccnc23)nc1C,inactive
18,CN1C[C@@H](NC(=O)c2cnccn2)C[C@H]1c1nc(-c2ccc(OC(F)(F)F)cc2)no1,"inconclusive: 79.4 µM [inhibitor, partial curve]"
19,O=C(Cc1ccc(F)cc1)NC1CCCN(c2ccc3nnc(C4CC4)n3n2)C1 (stereo not drawn),inactive
20,CCCc1nc(NCc2ccc(-c3noc(C)n3)cc2)c2cnn(C)c2n1,"inconclusive: 25.1 µM [inhibitor, partial curve, poor fit]"
21,COc1ccc(NC(=O)C2(C)CCCc3cnc(NCc4ccccc4)nc32)cn1 (stereo not drawn),"inconclusive: 89.1 µM [inhibitor, partial curve, poor fit]"

row,SMILES,Potency
1,CC(C)(C)C(=O)N1CCC(C(=O)N2CCCC(c3nc4ncccc4[nH]3)C2)CC1 (stereo not drawn),inactive
2,COc1ccccc1CN1CC(c2noc(-c3ccc(C)cc3C)n2)CC1=O (stereo not drawn),"inconclusive: 44.7 µM [inhibitor, partial curve, poor fit]"
3,COc1ccc(C(CC(=O)N(C)Cc2ncc(C)[nH]2)c2ccccc2)cc1 (stereo not drawn),"inconclusive: 70.8 µM [inhibitor, partial curve, poor fit]"
4,O=C(Nc1ccc(F)cc1)c1ccc2nc(-c3ccccn3)oc2c1,"inconclusive: 44.7 µM [inhibitor, partial curve, poor fit]"
5,O=C(c1cccc(N2CCNC2=O)c1)N1CCCC(CCc2ccccc2F)C1 (stereo not drawn),"inconclusive: 44.7 µM [inhibitor, partial curve]"
6,COc1ccc(CCC(=O)N2CC[C@H]3C(=O)NCCCCCCN(Cc4ccncc4)[C@@H]3C2)cc1,"inconclusive: 50.1 µM [inhibitor, partial curve, poor fit]"
7,CN(C)C[C@@H]1CN(C)C[C@H]1NC(=O)c1cc2ccccc2[nH]1,"inconclusive: 56.2 µM [inhibitor, partial curve, poor fit]"
8,CCCN(C)c1nccnc1OC1CCN(C(=O)C2CCOCC2)C1 (stereo not drawn),inactive
9,O=C(OCc1ccccc1)N1CCC2(CC1)C(=O)NN=C2c1ccccn1,"inconclusive: 56.2 µM [inhibitor, partial curve, poor fit]"
10,COc1cc(C)c(-c2nc(Cn3cccn3)c(C)o2)cc1C,inactive
11,O=C(Cc1ccc(F)cc1)NC1CCN(c2nccc(Nc3ccccc3Cl)n2)CC1,"inconclusive: 44.7 µM [inhibitor, partial curve, poor fit]"
12,CC1=C[C@@H](CNS(=O)(=O)c2ccccc2)[C@H](C(C)C)C[C@H]1CC(=O)NCCN(C)C,"inconclusive: 70.8 µM [inhibitor, single point]"
13,CN(C)CCCn1ccnc1C1CCCN(C(=O)N(C)c2ccccc2)C1 (stereo not drawn),inactive
14,Cc1nn(-c2ccccc2)c2c1C(C(C)C)N(C1CN([S+](=O)([O-])c3cccc(C(F)(F)F)c3)C1)C2=O (stereo not drawn),inactive
15,CCC(=O)N1Cc2ccccc2CC2(CCN(Cc3ccc(OC)cc3)C2)C1 (stereo not drawn),inactive
16,CCc1noc(-c2cn(C3CCN(C(=O)c4ccc(C)c(C)c4)CC3)nn2)n1,"inconclusive: 11.2 µM [inhibitor, full curve, poor fit]"
17,COc1ccccc1CNC(=O)[C@@H](C)C1CC[C@@]2(C)CC[C@H](NC(=O)c3cncnc3)[C@@H](C)[C@@H]2[C@H]1O (stereo partly drawn),inactive
18,COc1ccc(OC)c(NC(=O)N2c3ccccc3CC2c2nc(C3CC3)no2)c1 (stereo not drawn),"inconclusive: 44.7 µM [inhibitor, partial curve, poor fit]"
19,O=C(NCc1ccccc1)c1cnc2n1CCN(Cc1ccccc1)CC2,"inconclusive: 4.47 µM [inhibitor, full curve, poor fit]"
20,CCCNC(=O)N1CCC(Oc2ccccc2)C1 (stereo not drawn),inactive
21,COCC1CN(C)CC12CCN(S(=O)(=O)c1cccc(OC)c1)CC2 (stereo not drawn),"inconclusive: 31.6 µM [inhibitor, partial curve, poor fit]"

row,SMILES,Potency
1,COc1cccc(-c2ccc(CN3CCCC(NC(=O)N(C)C)C3)cc2)c1 (stereo not drawn),"inconclusive: 35.5 µM [inhibitor, partial curve, poor fit]"
2,Cc1cc(-c2ccnc(-c3nnc(C)n3CCc3ccccc3)c2)ccn1,active: 79.4 µM
3,COc1cc(OC)cc(-c2nc(C3CC(=O)N(c4ccc(Cl)cc4)C3)no2)c1 (stereo not drawn),"inconclusive: 35.5 µM [inhibitor, partial curve, poor fit]"
4,COc1ccc(CC(=O)N2CCCC3(Cc4ccccc4CN3C(=O)C3CCCC3)C2)cc1 (stereo not drawn),"inconclusive: 70.8 µM [inhibitor, single point]"
5,Cc1nc(-c2ccc(C(C)N3CCCCC3)cc2)c(C#N)cc1C(=O)O (stereo not drawn),inactive
6,Cc1cnc(CC2CCCN(S(=O)(=O)c3ccc4c(c3)OCCO4)C2)n1C(C)C (stereo not drawn),"inconclusive: 20 µM [inhibitor, full curve, poor fit]"
7,O=C(Cc1ccccn1)NC1CCCN(c2ccc3nnc(-c4ccccc4)n3n2)C1 (stereo not drawn),"inconclusive: 70.8 µM [inhibitor, partial curve, poor fit]"
8,COc1cccc(NC(=O)CCC[C@H]2NC[C@@H]3C[C@H]2CN(Cc2ccccc2)C3)c1,"inconclusive: 70.8 µM [inhibitor, single point]"
9,COc1ccc(-n2nc(C3CCN(Cc4cccc5ccccc45)CC3)[nH]c2=O)cc1,"inconclusive: 31.6 µM [inhibitor, partial curve]"
10,CCC1c2nccn2CCCN1C(=O)COc1ccc(F)cc1 (stereo not drawn),inactive
11,CCc1ccccc1NC(=O)Nc1cccc(-c2ccc(N3CCOCC3)nn2)c1,"inconclusive: 50.1 µM [inhibitor, single point]"
12,COc1ccc(CC(=O)N2Cc3ccccc3CC23CCCN(C(=O)CCN)C3)cc1 (stereo not drawn),"inconclusive: 70.8 µM [inhibitor, single point]"
13,O=C(CC(F)(F)F)N1CCC(N2C(=O)C3(CCCC3)C2c2ccccc2)CC1 (stereo not drawn),"inconclusive: 50.1 µM [inhibitor, partial curve, poor fit]"
14,N#Cc1cccc(C2CCN(C(=O)C3CCN(C(=O)C4CC4)CC3)CC2)c1,"inconclusive: 35.5 µM [inhibitor, partial curve]"
15,FC(F)(F)c1cccc(C2=NOC3(CCCN(Cc4cccnc4)C3)C2)c1 (stereo not drawn),"inconclusive: 31.6 µM [inhibitor, partial curve]"
16,CC(C)(C)OCC1CN(Cc2cccs2)S(=O)(=O)c2cnccc2O1 (stereo not drawn),"inconclusive: 25.1 µM [inhibitor, partial curve]"
17,CS(=O)(=O)c1ccc(CC(=O)N2CCc3n[nH]c(=O)n3CC2)cc1,inactive
18,COc1ccc(Cc2nc3nccc(-c4ccccc4)n3n2)cc1,"inconclusive: 50.1 µM [inhibitor, partial curve, poor fit]"
19,CC(C)Cn1c(=O)c(C(=O)N2CCN(C(=O)Nc3ccc(Cl)cc3)CC2)nc2cccnc21,inactive
20,O=C(NCc1csc(Cc2ccccc2)n1)C1NCCc2[nH]cnc21 (stereo not drawn),inactive
21,CCc1nc2c(c(-c3ccc(Cl)cc3)n1)CN([S+](=O)([O-])c1cccc(C(F)(F)F)c1)CC2,inactive
